According to paper PMC4336329 (PLoS ONE, 2015):
Out of some 310,000 compounds screened, about 2,200 (0.71%) showed an effect of 50% or more. The effect is printed as a negative number. The list shows a part of the results.

Target: human ether-à-go-go-related gene (hERG) potassium channel (human, UniProt Q12809)
Assay: primary screen, population patch clamp on CHO cells stably expressing hERG

Chain of human ether-à-go-go-related gene (hERG) potassium channel (Q12809 whole entry, looked up): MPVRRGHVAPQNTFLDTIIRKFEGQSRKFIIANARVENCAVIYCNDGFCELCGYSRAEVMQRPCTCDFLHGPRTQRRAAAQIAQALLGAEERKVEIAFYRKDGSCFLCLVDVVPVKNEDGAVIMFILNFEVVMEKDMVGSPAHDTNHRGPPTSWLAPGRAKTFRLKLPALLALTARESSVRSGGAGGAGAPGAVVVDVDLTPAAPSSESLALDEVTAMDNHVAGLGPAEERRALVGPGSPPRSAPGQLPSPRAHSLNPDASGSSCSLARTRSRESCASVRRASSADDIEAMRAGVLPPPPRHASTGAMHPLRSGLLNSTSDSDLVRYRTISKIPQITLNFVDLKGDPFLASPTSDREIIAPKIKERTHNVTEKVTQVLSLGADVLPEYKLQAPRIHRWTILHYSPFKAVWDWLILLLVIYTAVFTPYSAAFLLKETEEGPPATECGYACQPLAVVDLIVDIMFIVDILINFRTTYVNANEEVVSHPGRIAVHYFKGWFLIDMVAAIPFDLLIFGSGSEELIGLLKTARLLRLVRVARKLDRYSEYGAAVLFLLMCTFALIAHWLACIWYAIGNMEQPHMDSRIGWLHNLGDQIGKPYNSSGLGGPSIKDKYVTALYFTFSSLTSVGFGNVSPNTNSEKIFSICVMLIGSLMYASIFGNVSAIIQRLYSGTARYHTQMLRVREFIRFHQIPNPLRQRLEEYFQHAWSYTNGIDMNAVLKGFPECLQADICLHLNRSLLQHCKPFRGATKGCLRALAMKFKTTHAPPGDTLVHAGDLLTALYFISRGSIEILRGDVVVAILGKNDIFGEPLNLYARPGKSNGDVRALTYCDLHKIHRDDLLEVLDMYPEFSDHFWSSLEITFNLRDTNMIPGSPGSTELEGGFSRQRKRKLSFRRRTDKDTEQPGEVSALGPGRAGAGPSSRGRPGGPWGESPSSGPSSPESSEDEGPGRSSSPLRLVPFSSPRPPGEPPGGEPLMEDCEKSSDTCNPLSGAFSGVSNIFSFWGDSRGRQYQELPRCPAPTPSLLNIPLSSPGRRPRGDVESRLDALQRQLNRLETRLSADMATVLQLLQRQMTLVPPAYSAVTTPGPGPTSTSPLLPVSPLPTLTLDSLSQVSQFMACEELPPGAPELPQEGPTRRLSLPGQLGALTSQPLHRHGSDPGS

| SMILES | hERG current change (%, negative = inhibition) at 1uM [%] |
| --- | --- |
| NC(=S)NNC(=S)Nc1ccccc1 | 11.2 |
| CCOC(=O)c1oc2ccc(S(=O)(=O)n3nc(-c4ccc(OC)cc4)cc3N)cc2c1C | 18.1 |
| COc1cc(OC)cc(C(=O)N[C@H](C(=O)Nc2ccc(NC(C)=O)cc2)C(C)C)c1 | 11.6 |
| Cc1csc(SCC(=O)c2cc(C)n(Cc3cccs3)c2C)n1 | 11.5 |
| O=C(CNC(=O)c1ccccn1)N=Nc1c(O)[nH]c2ccccc12 | 15.5 |
| CN(C1=NC(=O)C(CC(=O)O)S1)c1ccc(O)cc1 (stereo not drawn) | 9.82 |
| O=C(O)CC(CNS(=O)(=O)c1cccc2nsnc12)c1ccccc1 (stereo not drawn) | 7.21 |
| CN(C)C(=O)c1c(C(F)(F)F)nn(C)c1Cl | 13.7 |
| Cc1ccccc1C(=O)Oc1ccc2ccc(O)cc2c1 | 14.7 |
| O=C(O)c1ccc2c(=O)n(-c3ccc(F)c(Cl)c3)c(=S)[nH]c2c1 | 11.1 |
| Cc1ccc2oc(C(=O)N3CCC(C(N)=O)(N4CCCCC4)CC3)c(C)c2c1 | 2.03 |
| O=C(Cn1c(=O)oc2ccccc21)Nc1ccccc1C(F)(F)F | 18.4 |
| O=C1Nc2ccc([N+](=O)[O-])cc2OC1CCN1CCOCC1 (stereo not drawn) | 6.64 |
| CN(C)c1ccc(NC(=O)CN2CCC(NC(=O)C3CCCCC3)CC2)cc1 | 10.9 |
| COc1ccccc1/C=C(\NC(=O)c1ccc(OC)c(OC)c1)C(=O)Nc1cc([N+](=O)[O-])ccc1C | 13.9 |
| COc1ccc(C(=S)N2CCCC2)cc1Br | 9.24 |
| O=C(c1ccco1)N1CCN(C(=O)c2cnn(-c3ccc(Cl)cc3)c2C2CCNCC2)CC1 | 13.7 |
| COCCn1c(SCC(=O)NNC(=O)c2cc(Cl)ccc2OC)nnc1-c1ccncc1 | 9.64 |
| CCCn1c(N)c(N(CCOC)C(=O)CSc2ccccc2)c(=O)[nH]c1=O | 10.2 |
| CCCCc1cc(=O)oc2c(CN3CCCC3)c(O)c(Cl)cc12 | 0.161 |
| Cc1occc1C(=O)Nc1nn[nH]n1 | 11.3 |
| CCCOc1ccc(C(=O)Nc2ccc(C)cc2[N+](=O)[O-])cc1 | 2.96 |
| CN(c1ccc(C(=O)NCCSCc2ccccc2)cc1)S(=O)(=O)c1ccccc1 | 9.97 |

| SMILES | hERG current change (%, negative = inhibition) at 1uM [%] |
| --- | --- |
| CC1=C(C(=O)OC2CCCCC2)C(c2ccc(O)cc2)NC(=O)N1 (stereo not drawn) | 13 |
| COc1cccc(CNC(=O)CCNC(=O)N2CCn3c2nc2ccccc23)c1 | 22.3 |
| CC(C)Nc1ccc(C(CC(N)=O)NC(=O)Cc2ccc(Cl)cc2)cc1[N+](=O)[O-] (stereo not drawn) | 10.9 |
| C=CCOc1ccc(/C=C/C(=O)OCC(=O)NCCC2=CCCCC2)cc1 | 13.3 |
| CCc1ccc(-n2c(SCc3c(C)noc3C)nnc2-c2ccncc2)cc1 | -2.1 |
| O=C(O)c1cc(-c2ccc(Cl)s2)[nH]n1 | 6.26 |
| Cc1nn(C)cc1CNC(=O)c1ccccc1Br | -0.58 |
| Cc1ccc(C)c(S(=O)(=O)N2CCCOC2CNC(=O)C(=O)NCc2cccnc2)c1 (stereo not drawn) | 7.36 |
| N#Cc1ccccc1Sc1ccccc1C(=O)Nc1ccccc1 | 8.9 |
| Cc1ccccc1-n1c(N)c(C(=O)Nc2ccc(F)cc2)sc1=S | 6.6 |
| Cl.O=C(CCN1CCOCC1)c1ccccc1 | 6.33 |
| CCOc1ccccc1C(=O)Nc1cnn(Cc2ccc(F)cc2)c1 | 9.48 |
| O=C(CCc1nnc2ccc(NCc3ccccc3)nn12)NCC1CCN(C2CCCC2)C1 (stereo not drawn) | 10.6 |
| COc1cc(OC)c(C2=NOC(C(=O)NCc3cccs3)C2)cc1Cl (stereo not drawn) | -0.0437 |
| CCOc1ccc(-n2c(COc3ccc(C)cc3)nnc2SCC(N)=O)cc1 | -0.543 |
| CC(C)c1nc2oc3ccccc3c(=O)c2c(=O)n1-c1ccccc1 | 6.91 |
| O=C1CSC(c2cn(-c3ccccc3)nc2-c2cc3ccccc3o2)N1Cc1ccccc1 (stereo not drawn) | 15.1 |
| CCN(CC)CCNC(=O)Cn1cnc2sc(C)c(S(=O)(=O)N3CC(C)CC(C)C3)c2c1=O (stereo not drawn) | 19 |
| O=C(COC(=O)c1ccc2ccccc2c1O)NCC(F)(F)F | -4.71 |
| COc1ccc(/C=C\C(=O)CC(O)(c2ccccc2)C(F)(F)F)cc1 (stereo not drawn) | 9.07 |
| O=C(/C=C/c1ccco1)Oc1ccc(C(=S)N2CCOCC2)cc1 | 7.78 |
| COc1cccc(OCC(=O)NNC(=O)Cc2cccs2)c1 | 16 |
